Results reported in PubChem BioAssay AID1745853 (National Center for Advancing Translational Sciences (NCATS), 2022).
Where “and” joins values, the source holds several entries; their conditions need not be identical. Identical values can stand only once. Some of the results follow. Further columns of the screen follow, without active or inactive calls.

What was measured:
Assay in all cases: Primary Screen for Target Class Profiling of Small Molecule Inhibitors of Methyltransferases
[1] = biological target: Glycine N-methyltransferase (Homo sapiens) (UniProt Q14749); conditions: purified enzyme, MTase-Glo SAH luminescence; measured here: GNMT inhibition; at 40 µM; stronger effect = lower value
Excerpt: (§1) PI: Matthew D. Hall Ph.D. and Quinlin M. Hanson Ph.D.
(§2) National Center for Advancing Translational Sciences (NCATS)
(§3) National Institute of Health (NIH), Rockville, MD
(§4) Target class profiling (TCP) is a chemical biology approach amenable to investigating understudied biological targets. TCP is achieved by developing a generalizable assay platform and applying it to screen a curated set of compound libraries against representative members of a target class. Small molecule methyltransferases (SMMTase) are a subclass of methyltransferase that act on metabolites to modulate signaling pathways, metabolize xenobiotics, or balance the available methyl pool. We screened four curated libraries totaling 27,574 unique compounds against the SMMTases nicotinamide N-methyltransferase (NNMT), phenylethanolamine N-methyltransferase (PNMT), histamine N-methyltransferase (HNMT), glycine N-methyltransferase (GNMT), catechol O-methyltransferase (COMT), and guanidinoacetate N-methyltransferase (GAMT). The data generated by this TCP can be leveraged for informed tool molecule development. For example, in the associated publication we identified a chemotype of HNMT-selective inhibitors. Additionally, we identified a putative SMMTase-selective inhibitor with potential as a tool molecule for studying broader methyltransferase biology.
(§5) High-through put screening assays were developed at the National Center for Advancing Translational Science (NCATS) for the enzymes NNMT, PNMT, HNMT, GNMT, COMT, and GAMT. Enzymatic activity was measured as a function of SAM cofactor conversion using the MTase Glo kit (Promega) for all enzymes. All assays were performed in 1536-well format with substrates and SAM concentrations at KM values. Enzyme concentration and assay timing were optimized for 10-20% SAM conversion. Initial screening of 27,574 compounds was done as single-point assays using the highest compound concentration (40 uM). […] These compounds were replated in 11-point dose response and assayed against NNMT, PNMT, HNMT, GNMT, COMT, GAMT, and a counter-assay. The IC50 and efficacy (maximal response) values were determined for each dose-response curve. These values are also accounted for in the area under the curve (AUC) values.
(§6) PROTOCOL TABLE (as described by Inglese J, Shamu CE and Guy RK. 2007)
(§7) SEQUENCE No. (e.g., 1, 2, 3, etc.); […] (e.g., Cells, Incubation, Reagent, etc.); VALUE; DESCRIPTION.
(§8) 1; Reagent; 2 uL; SMMTase Enzyme (2x) in reaction buffer, columns 1- 48.
(§9) 2; Reagent; 1 uL; SAM (4x) in reaction buffer, columns 1-48.
(§10) 3; Controls; 23 nL; DMSO in column 4; sinefungin in DMSO (0 uM - 40 uM) in 7-point 1:2 dilution series (n = 2) in column 2.
(§11) 4; Compounds; 23 nL; Columns 5-48.
(§12) 5; Reagent; 1 uL; Substrate (4x) in reaction buffer, columns 2-48.
(§13) 6; Time; 20-30 min; Incubation.
(§14) 7; Reagent; 1 uL; MTase-Glo reagent (5X), columns 1-48.
(§15) 8; Time; 30 min; Incubation.
(§16) 9; Reagent; 5 uL; MTase-Glo Detection reagent, columns 1-48.
(§17) 10; Time; 30 min; Incubation, luminescence evolution.
(§18) 11; Detection; Luminescence; ViewLux uHTS Microplate Imager (PerkinElmer).
(§19) NOTES (numbers refer to Sequence numbers above)
(§20) 1, 2, 5. White Medium Binding Greiner 1536-well plates (Cat #789175-F, Greiner Bio-One, Monroe, NC); Reaction buffer: 50 mM Tris, pH 8.0, 3 mM MgCl2, 1 mM EDTA, 50 mM NaCl, 1 mM DTT, and 0.1 mg/mL BSA. Evaporation was prevented by covering assay plates with metal lids containing holes to allow gas diffusion.
(§21) 1. Six SMMTase were profiled: HNMT, GNMT, PNMT, COMT, NNMT, GAMT
(§22) 5. The corresponding substrate was used for each enzyme: HNMT - 5.3 uM Histamine; GNMT - >500 uM Glycine; PNMT - 16.2 uM Norephinephrine; COMT - 13.7 uM Norephinephrine; NNMT - 3.8 uM Nicotinamide; GAMT - 2.5 uM Guanidinoacetate.6, 8, 10. Room temperature
(§23) 6. Final reaction conditions: 10 nM COMT, 5 uM SAM, 15 uM norepinephrine, 50 mM Tris, pH 8.0, 3 mM MgCl2, 1 mM EDTA, 50 mM NaCl, 1 mM DTT, and 0.1 mg/mL BSA; refer to tables 2 and S1 for specific timing.
8. […]

[2] = biological target: Guanidinoacetate N-methyltransferase (Homo sapiens) (UniProt Q14353); conditions: purified enzyme, MTase-Glo SAH luminescence; measured here: GAMT inhibition; at 40 µM; stronger effect = lower value
Excerpt: as §1, §2, §3, §4, §5, §6, §7, §8, §9, §10, §11, §12, §13, §14, §15, §16, §17, §18, §19, §20, §21, §22, §23
8. […]

[3] = biological target: Histamine N-methyltransferase (Homo sapiens) (UniProt P50135); conditions: purified enzyme, MTase-Glo SAH luminescence; measured here: HNMT inhibition; at 40 µM; stronger effect = lower value
Excerpt: as §1, §2, §3, §4, §5, §6, §7, §8, §9, §10, §11, §12, §13, §14, §15, §16, §17, §18, §19, §20, §21, §22, §23
8. […]

[4] = biological target: Nicotinamide N-methyltransferase (Homo sapiens) (UniProt P40261); conditions: purified enzyme, MTase-Glo SAH luminescence; measured here: NNMT inhibition; at 40 µM; stronger effect = lower value
Excerpt: as §1, §2, §3, §4, §5, §6, §7, §8, §9, §10, §11, §12, §13, §14, §15, §16, §17, §18, §19, §20, §21, §22, §23
8. […]

[5] = biological target: Phenylethanolamine N-methyltransferase (Homo sapiens) (UniProt P11086); conditions: purified enzyme, MTase-Glo SAH luminescence; measured here: PNMT inhibition; at 40 µM; stronger effect = lower value
Excerpt: as §1, §2, §3, §4, §5, §6, §7, §8, §9, §10, §11, §12, §13, §14, §15, §16, §17, §18, §19, §20, §21, §22, §23
8. […]
% is set by controls: 0 for no effect and ±100 for the full control effect.

Structure (SMILES)	activity change, negative = inhibition [1]	activity change, negative = inhibition [2] [%]	activity change, negative = inhibition [3]	activity change, negative = inhibition [4] [%]	activity change, negative = inhibition [5] [%]
COc1ccc(OC)c(NC(=O)N2Cc3ccccc3-n3cccc3C2c2cccc(C)c2)c1 (stereo not given)	1.42%	-1.2	-3.04%	-3.26	-0.447
CN1CCN([C@H]2[C@@H]3OC[C@@H](O3)[C@@H](NCc3ccccn3)[C@@H]2O)CC1	-0.403%	-1.32	1.51%	1.32	-1.24
O=S(=O)(c1ccccc1F)N1CCOc2c(N3CCNCC3)cccc21	-3.33%	3.85	6.25%	-23.2	2.92
CCCn1c(=O)c2[nH]c(C3CCCC3)nc2n(CCCOC(=O)c2ccc(S(=O)(=O)F)cc2)c1=O	5.96%	16.3	9.54%	-8.06	7.24
COc1ccc(C2c3cccn3-c3ccccc3CN2C(=O)Nc2ccccc2F)cc1OC (stereo not given)	11.2%	0.08	6.12%	-0.66	6.38
CC(=O)O[C@@H]1[C@@H](O)[C@H]2O[C@@H]3C=C(C)[C@@H](O)C[C@]3(CO)[C@]1(C)[C@]21CO1	0%	6.48	9.34%	-5.12	7.66
COc1ccc(C)cc1NC(=O)N1Cc2ccccc2-n2cccc2C1c1ccc(C)cc1 (stereo not given)	8.46%	0	6.06%	9.14	6.23
CCCN(CCC)CCc1ccc(OC)c(OCCc2ccccc2)c1	4.16%	12.2	-20.3%	-7.07	0.844
CCN1CCN(C(=O)Cc2ccc(Nc3ncc(F)c(Nc4ccc(C(=O)Nc5ccccc5Cl)cc4)n3)cc2)CC1	-15.9%	5.88	-19.5%	-19.1	-8.71
CC(O)(CS(=O)(=O)c1ccc(F)cc1)C(=O)Nc1ccc(C#N)c(C(F)(F)F)c1 (stereo not given)	-4.11% and -3.07%	5.59	0.029% and 6.99%	-8.21	7.37
COC(=O)C12C(=O)C(C)(O)C(=O)C1(C)C(C)=CC1C34CCC(OC3=O)C(C)(CO)C4CCC12C (stereo not given)	-1.85%	5.9	3.14%	-8.97	1.93
Cc1ccc(NC(=O)N2Cc3ccccc3-n3cccc3C2c2ccc(F)cc2)cc1 (stereo not given)	4.93%	0.767	0.486%	2.59	5.93
NC(=O)c1ccc(N2CC3CCC(C2)N3CC(F)(F)F)nn1	-6.57%	-8.49	-20.4%	-59.1	-12.6
Cn1cccc1C(=O)C(=O)N1C[C@H](c2cc(F)cc(F)c2)[C@@H]2[C@H]1C1CCN2CC1	-8.01%	-6.02	-7.36%	-15.1	0.781
COc1ccc(NC(=O)N2Cc3ccccc3-n3cccc3C2C)cc1 (stereo not given)	4.54%	2.72	-3.13%	-7.32	1.52
COc1ccc(CC2C(=O)NC(C)C(=O)N(C)C3Cc4ccc(cc4)Oc4cc(ccc4OC4OC(CO)C(O)C(O)C4O)CC(C(=O)NC(C)C(=O)NC(CCC(=O)O)C(=O)N2C)N(C)C3=O)cc1 (stereo not given)	-4.26%	-8.45	1.51%	-18	-15.7
Cc1ccc(NC(=O)N2Cc3ccccc3-n3cccc3C2c2cccc(Cl)c2)cc1 (stereo not given)	3.67%	7.83	-1.29%	1.07	3.34
Cc1ncsc1CCCl	-8.09%	1.87	-1.77%	-8.65	-2.83
CC(=O)C1CCC2C3CCC4C[C@@H](O)CCC4(C)C3CCC12C (stereo not given in full)	-7.23%	12	2.52%	-23.5	-5.26
O=C(Nc1cccc(Cl)c1)N1Cc2ccccc2-n2cccc2C1c1ccccc1 (stereo not given)	5.81%	0	-0.517%	1.87	4.6
CC1c2cccn2-c2ccccc2CN1C(=O)Nc1ccc(Br)cc1 (stereo not given)	13.1%	3.1	7.13%	4.62	8.72
CCc1ccc(C2c3cccn3-c3ccccc3CN2C(=O)Nc2ccc(F)c(Cl)c2)cc1 (stereo not given)	14.7%	3.68	8.27%	8.29	7.95
COc1ccc(C(=O)N2C[C@@H]3C[C@H](C2)c2ccc(NC(=O)CN(C)C)c(=O)n2C3)cc1	-1.43%	-0.194	-0.154%	1.29	1.73
CN(C)c1ccc(C2c3cccn3-c3ccccc3CN2C(=O)Nc2ccc(Cl)cc2)cc1 (stereo not given)	10.8%	0	3.85%	7.86	4.99
CCCN1CCO[C@H]2c3cc(O)ccc3OC[C@@H]21	0.857%	5.3	10.6%	-8.47	6.08
CC(C)Oc1cccnc1N(C)C1CCN(Cc2ccccc2)CC1	-12.3%	3.87	-13.2%	-5.43	8.04
Cc1cccc(C2c3cccn3-c3ccccc3CN2C(=O)Nc2ccc(Br)cc2)c1 (stereo not given)	4%	4.86	3.3%	5.02	-0.841
O=C(Nc1ccccc1)N1Cc2ccccc2-n2cccc2C1c1ccc(F)cc1 (stereo not given)	-2.79%	0	-0.09%	-3	4.48
C=C1C(=O)O[C@@H]2[C@H]3C(=C)[C@@H](O)C[C@H]3C(=C)C[C@@H](O)[C@@H]12	-3.73%	1.16	11.3%	-5.72	2.86
